Measured values reported in PubChem BioAssay AID686979 (National Center for Advancing Translational Sciences (NCATS), 2013).
About 50,000 (12%) of roughly 420,000 compounds were called active. The shares of active, inactive and inconclusive entries below differ from those in the screen. Calls follow the shape of the dose curve; as a rule, active = well fitted inhibition curve with a large enough effect; inconclusive = small, poorly fitted or top-dose-only effect; inactive = flat fitted curve, though single readings scatter. No potency is given beside an inconclusive call; the fits are too rough. Some compounds were tested as several samples or in several runs, with calls that do not always agree.

Test: qHTS for Inhibitors of human tyrosyl-DNA phosphodiesterase 1 (TDP1): qHTS in cells in presence of CPT; also: nearly all actives have a fitted effect of over 55% in size
Conditions: chicken DT40 Tdp1-/-;hTDP1 cells + 20 nM CPT, ATP luminescence, 48 h; activity change, negative = growth inhibition: at 46.2 µM (top of the series) unless noted
In short: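 Chicken DT40 Tdp1-/- cells stably complemented with human TDP1 were seeded at 400 cells/well in medium containing 20 nM camptothecin, exposed to pin-transferred compounds, and grown at 37 °C for at least 48 hr. Viability was read as ATP luminescence.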
% is scaled to controls: 0 for no effect and ±100 for the full control effect; potency is read from the fitted curve at half-maximal effect; tags tell the direction and shape of the fitted curve.

Structure (SMILES) | activity change, negative = growth inhibition | Potency
CC1CCC2(CC1)NC(=O)N(CC(=O)NCc1cccs1)C2=O (stereo not given) | inactive: -4.63% | –
CC1(C(=O)O)CCC(C(=O)N2CCCCC2)C1(C)C (stereo not given) | inactive: -29.6% | –
COc1ccc2c(c1)CC(C(=O)Nc1ccc(Cl)cc1)/C(=N/O)O2 (stereo not given) | inactive: -17.7% | –
CCCCCn1c(C(Cc2ccccc2)NC(C)=O)nc2ccccc21 (stereo not given) | – | inconclusive [inhibitor, single point]
COc1ccccc1-c1noc2c1C(=O)NCC2 | inactive: -17.1% | –
Cc1c([C@@H]2C[C@H]3CN(Cc4cccc(Cl)c4)C(=O)[C@]34CCCN24)cnn1C | – | inconclusive [inhibitor, partial curve]
CCCN1CCN(C(=O)c2cc3c(s2)-c2ccccc2OC3)CC1 | – | inconclusive [inhibitor, single point]
c1ccc(CN2CCN(c3nc4ccccc4n4cnnc34)CC2)cc1 | – | active: 13 µM
Cc1ccc2[nH]c(=O)c3cc(C(=O)NCCC(C)C)sc3c2c1 | – | inconclusive [inhibitor, single point]
COc1cccc(CC2(CO)CCCN(Cc3[nH]c4ccc(C)cc4c3C)C2)c1 (stereo not given) | – | inconclusive [inhibitor, single point]
COc1ccc(Cc2nnc(SCC(=O)NC3CCCCC3)n2C)cc1 | inactive: -3.13% | –
CC1(C(=O)NCc2ccccc2)CSCC(=O)N1C1CC1 (stereo not given) | inactive: -3.28% | –
CCc1cccc2c(-c3ccccc3)nc(SCC(=O)Nc3ccccc3OC)nc12 | – | inconclusive [inhibitor, single point]
C=C1c2ccccc2O[C@H](C(=O)OCC)[C@@H]1C1CCCCC1 | – | inconclusive [inhibitor, single point]
O=C(Nc1ccccc1)N1CC[C@@]2(CCCN(C(=O)c3cc(C(F)(F)F)cc(C(F)(F)F)c3)C2)C1 | inactive: -11.3% | –
O=C(N/N=C/c1cccc(O)c1)c1ccc(COc2ccc3c(c2)CCC3)o1 | – | inconclusive [inhibitor, single point]
CCOC(=O)c1cccc(NC(=O)c2cnc3ccccc3n2)c1 | – | inconclusive [inhibitor, single point]
Clc1ccc2c(c1)C(N1CCNCC1)=Nc1ccccc1O2 | – | active: 14.6 µM
Cc1ccsc1/C=N/N1CCN(C2c3ccccc3-c3ccccc32)CC1 | – | inconclusive [inhibitor, single point]
COc1ccccc1NC(=O)C(C)Sc1nnc2ccc3ccccc3n12 (stereo not given) | – | active: 20.6 µM
COc1ccc(NS(=O)(=O)c2cc(NC(=O)C3CC3)ccc2N2CCOCC2)cc1 | inactive: -17.2% | –
Cc1cccc(C)c1NC(=O)C1=C(O)c2sccc2N(C)S1(=O)=O | inactive: 13.2% | –
CCCc1c(-c2ccc(F)cc2)ncn1CCc1ccccc1OC | – | inconclusive [inhibitor, single point]
OCCN(CCO)c1ccc(C(c2ccccc2Cl)c2ccc(N(CCO)CCO)cc2Cl)c(Cl)c1 | – | inconclusive [inhibitor, single point]
Cc1ccc(-n2ncc(C(=O)NCc3cccs3)c2C2CCN(C(=O)OC(C)(C)C)CC2)cc1 | – | active: 23.1 µM

Structure (SMILES) | activity change, negative = growth inhibition | Potency
COc1cc(CNC(=O)C2CCCN2S(=O)(=O)c2ccccc2)cc(OC)c1OC (stereo not given) | inactive: -3.31% | –
C[C@H](CO)N1C[C@H](C)[C@@H](CN(C)S(=O)(=O)c2ccccc2)Oc2c(NC(=O)C3CC3)cccc2C1=O | inactive: -0.7% | –
COCCCNC(=O)Cc1c(C)c2cc3c(cc2oc1=O)OC(C)(C)CC3 | – | active: 25.9 µM
C=CCCCCCCCCc1nc(=S)[nH][nH]1 | – | inconclusive [inhibitor, partial curve]
Cc1nc2sc(C(c3ccc(Cl)cc3)N3CCN(CCO)CC3)c(O)n2n1 (stereo not given) | – | inconclusive [inhibitor, partial curve, poor fit]
COCCNc1ncnc2ccc(-c3ccc(N(C)C)cc3)cc12 | – | inconclusive [inhibitor, single point]
COc1cc(/C=C2\SC(c3ccccc3)=NC2=O)cc(Cl)c1O | – | active: 20.6 µM
CCN(CC(=O)Nc1cccc(S(=O)(=O)N(C)c2ccccc2)c1)Cc1cccs1 | – | inconclusive [inhibitor, single point]
COc1ccc(NC(=O)c2sc3ncnc(N4CCN(c5ccccn5)CC4)c3c2C)cc1Cl | – | active: 20.6 µM
CS(=O)(=O)Nc1ccc(-c2ccc(/C=C3\SC(N)=NC3=O)o2)cc1 | – | inconclusive [inhibitor, partial curve]
COc1ccc(Cl)cc1NC(=O)C/C(C)=N/NC(=O)COc1ccc(C)cc1 | inactive: -26.9% | –
CCCCC/C(C=O)=C\c1ccccc1 | inactive: -7.45% | –
OC(COc1ccc2cc(Br)ccc2c1)CN1CCOCC1 (stereo not given) | – | active: 18.4 µM
COC(=O)c1cc(NS(=O)(=O)c2ccc3c(c2)CCC(=O)N3)cc(C(=O)OC)c1 | inactive: -16.8% | –
O=C(CC1c2ccccc2C=C(c2ccsc2)N1c1ccc(-c2cccnc2)cc1)C1CC1 (stereo not given) | – | inconclusive [inhibitor, single point]
COc1ccccc1-c1nc(C(N)=O)c2[nH]c(=O)n(-c3cccc(C)c3)c2n1 | inconclusive: -30.2% [inhibitor] | –
N#CC[C@H](Cc1ccccc1)N1CC[C@@H](NC(=O)OCc2ccccc2)CCC1=O | – | inconclusive [inhibitor, single point]
COc1ccc(C(C(=O)NC(C)(C)C)n2c(-c3ccc(=O)[nH]c3)nc3ccccc32)cc1 (stereo not given) | – | active: 9.2 µM
O=S(=O)(Nc1ncccn1)c1ccc(NC(=S)NCCc2ccc(Cl)cc2)cc1 | inactive: 6.14% | –
CC(C)C(NS(=O)(=O)c1ccccc1)C(=O)N1CCCCCC1 (stereo not given) | inactive: 6.49% | –
COc1ccc(N(CC(=O)N/N=C/c2ccc(-c3ccc([N+](=O)[O-])cc3)o2)S(=O)(=O)c2ccc(C)cc2)cc1 | inactive: -27.6% | –
Cc1c(Br)c([N+](=O)[O-])nn1CC(=O)N(C)Cc1ccccc1 | inactive: 2.39% | –
CCOC(=O)N1CCN(C(=O)C[C@@H]2C[C@@]3(C(=O)OCC)CCC=C3N(Cc3cccc4ccccc34)C2=O)CC1 | – | inconclusive [inhibitor, single point]
COc1ccc(OC)c(CCNC(=O)CCc2cn(Cc3cc(C)ccc3C)c3ccccc23)c1 | – | inconclusive [inhibitor, single point]
CN1CCN(CP(=O)(N2CCOCC2)N2CCOCC2)CC1 | inactive: -5.98% | –

Structure (SMILES) | activity change, negative = growth inhibition | Potency
Cc1ccc(S(=O)(=O)N(C)CC(=O)NCC(c2ccc(F)cc2)N2CCOCC2)cc1 (stereo not given) | – | inconclusive [inhibitor, partial curve]
O=C(CN(CCO)c1ccccc1)Nc1ccc(Cl)c(S(=O)(=O)N2CCOCC2)c1 | – | inconclusive [inhibitor, partial curve]
NC1(C#Cc2ccc3c(=O)c4ccccc4sc3c2)CCCCC1 | – | active: 25.9 µM
CC(C)CC(c1nnnn1CC1CCCO1)N1CCN(c2cccc(Cl)c2)CC1 (stereo not given) | – | active: 25.9 µM
COc1ccc(NC(=O)CN(C)C(=O)Cc2n[nH]c(=O)c3ccccc23)cc1 | – | active: 9.2 µM
O=C(NC1CCCCC1)C(c1ccco1)N(CCc1ccccc1)C(=O)C(F)(F)F (stereo not given) | – | active: 23.1 µM
O=C(CCS(=O)(=O)Cc1ccc(Cl)cc1)NCCc1ccccc1 | inactive: -3.84% | –
CCn1c(SCc2ccc(C(=O)Nc3nccs3)cc2)nnc1-c1ccc(NC(C)=O)cc1 | – | inconclusive [inhibitor, single point]
CC(C)CC1C(=O)N(Cc2cn(CCC3OCCCO3)nn2)CCS(=O)(=O)N1Cc1ccc(-c2ccc(F)cc2)cc1 (stereo not given) | – | inconclusive [inhibitor, single point]
Cc1ccc(S(=O)(=O)Cc2sc3ccccc3[n+]2C)cc1 | inactive: -24.6% | –
Cc1cccc(OCc2nnc(SCC(=O)N3CCCCC3)o2)c1 | inactive: 4.57% | –
CC(=O)N=c1nc(-c2ccccc2)n(-c2ccccc2)s1 | inactive: -10.4% | –
O=C(c1ccccc1)C(CCc1ccccn1)CCc1ccccn1 | – | inconclusive [inhibitor, partial curve, poor fit]
COc1ccc(NC(=O)CC2CCCCC2)cc1OC | inactive: -20.5% | –
N#CCSc1nc2c(sc(=S)n2Cc2ccco2)c(=O)n1-c1ccc(F)cc1 | – | inconclusive [inhibitor, single point]
O=C1c2ccccc2C(=O)N1CC(O)COc1ccc(Br)cc1 (stereo not given) | inactive: -11.8% | –
CC(=O)Nc1ccc(S(=O)(=O)NCCC(=O)NC(C)c2cccs2)cc1 (stereo not given) | inactive: 0.443% | –
Cc1ccc(C)c2c1N(Cc1ccccc1)C(=O)C21OCCO1 | – | inconclusive [inhibitor, single point]
Cc1cc(C(C)(C)C)oc1C(=O)NCCCNC(=O)c1oc(C(C)(C)C)cc1C | inconclusive: -32.8% [inhibitor] | –
Cc1c(C(=O)NNC(=O)c2ccncc2)oc2ccc(Br)cc12 | inactive: -7.41% | –
O=C(c1ccccc1)N1CCC(CC2CC(c3cccc(Br)c3)=NO2)(C(=O)NCC2CCCCC2)CC1 (stereo not given) | – | inconclusive [inhibitor, single point]
COc1ccc(CN2CCOc3ccc(CN4CCC(O)(c5cccnc5)CC4)cc3C2)cc1OC | – | inconclusive [inhibitor, single point]
NC(=O)CSc1nc2cc([N+](=O)[O-])ccc2n1-c1cccc(C(F)(F)F)c1 | – | inconclusive [inhibitor, partial curve]
COc1cccc(C2NC(=O)c3n[nH]c(-c4cccs4)c32)c1 (stereo not given) | inconclusive: -30.1% [inhibitor] | –
COCc1c(C(=O)N2CCC(N(C)C)C2)cnn1-c1ncc2c(n1)-c1ccccc1CCC2 (stereo not given) | inactive: 5.14% [at 9.04 µM] | –
